According to PubChem BioAssay AID686971 (National Center for Advancing Translational Sciences (NCATS), 2013):
The whole screen tested about 360,000 compounds, of which about 7,500 (2.1%) were called active. This list was built around the results that the source calls inconclusive (neither active nor inactive); the mix of calls is not that of the screen. Calls follow the shape of the dose curve; as a rule, active = well fitted cell-killing curve with a large enough effect; inconclusive = small, poorly fitted or top-dose-only effect, or effect the other way, or another doubt; inactive = no such curve, though single readings can be large or run the other way. Potencies of inconclusive entries are left out as doubtful fits.

assay: qHTS for induction of synthetic lethality in tumor cells producing 2HG: qHTS for the HT-1080-IDH1KD cell line; details: HT-1080 IDH1 knockdown viability, ATP luminescence, 48 h; activity, negative = toxicity: at 46.1 µM (top of the series) unless noted;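 as to activity, negative = toxicity: 0% = DMSO wells and -100% = cell-free medium wells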
In short: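 Cytotoxicity counter-line: IDH1KD HT-1080, 48 h, CellTiter-Glo. Curves classed by r2, magnitude and activity.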
Potency is read from the fitted curve at half-maximal effect; tags tell the direction and shape of the fitted curve.

| SMILES | Potency | activity, negative = toxicity |
| --- | --- | --- |
| CCOc1ccccc1N1C(=O)CC(Sc2ncccc2C(=O)O)C1=O (stereo not drawn) | inconclusive [cytotoxic, single point] |  |
| COc1ccc(CCNc2c(C)c(C)nc3ncnn23)cc1 | active: 7.08 µM |  |
| Cc1ccc2nc3c(c(Nc4ccc5c(c4)OCCO5)c2c1)CCC3 | inconclusive [cytotoxic, single point] |  |
| CCCCCCC(C)n1[nH]c(=O)c2c(C)cc(=O)[nH]c21 (stereo not drawn) | inconclusive [cytotoxic, full curve] |  |
| CCCn1c(SCC(=O)NCCc2ccccc2)nnc1-c1ccccn1 |  | inactive: 12.4% |
| CC(=O)c1sc(NC(=O)c2ccc3c(c2)OCO3)nc1C | inconclusive [cytotoxic, single point] |  |
| O=C1NC[C@@H](CCCCN2C[C@H](Cc3ccccc3)N(CC3CCCCC3)C(=O)C2=O)N(CC2CCCCC2)C1=O | inconclusive [cytotoxic, single point] |  |
| CCCCC(=NCCc1c(C)[nH]c2ccc(OC)cc12)C1=C(O)CC(c2ccccc2)CC1=O (stereo not drawn) | active: 2.31 µM |  |
| CN(C)CCCn1c(=O)n(Cc2ccco2)c(=O)c2c3c(sc21)CCCCC3 | inconclusive [cytotoxic, single point] |  |
| COc1ccc(-c2cn(-c3ccc(OC)cc3)c3[n+]2-c2ccccc2CC3)cc1 | inconclusive [cytotoxic, partial curve, poor fit] |  |
| COc1ccc(-c2ccnc3nc(N4CCN(c5ccccc5)CC4)nn23)cc1 |  | inactive: -12.1% |
| O=C(CN1C(=O)C2CCCCC2C1=O)Nc1nc(-c2ccccn2)cs1 (stereo not drawn) | inconclusive [cytotoxic, single point] |  |
| Cn1ncc2cc3c(Nc4ccc(Cl)cc4)cccc3nc21 | inconclusive [cytotoxic, single point] |  |
| Cc1cccc(C(=O)NC2CC3CCCC(C2)N3Cc2ccccc2)c1 (stereo not drawn) |  | inactive: 17.2% |
| COc1cc2c(cc1OC)CN(C(=O)CCC(=O)c1ccc(F)cc1)CC2 | inconclusive [cytotoxic, single point] |  |
| COC(=O)NCC(c1ccc2c(c1)OCO2)N1CCN(c2ccccc2)CC1 (stereo not drawn) |  | inactive: 7.59% |
| O=C1C=C(Nc2cccnc2)c2ccccc2C1=O | active: 23.1 µM |  |
| Cc1cc(-c2n[nH]c(=S)n2/N=C/C=C/c2ccco2)n[nH]1 |  | inactive: 13% |
| CCOC(=O)NNc1ccccc1 | active: 3.66 µM |  |
| CC(C)c1ccc(NC(=O)COc2ccc(F)cc2C(=O)c2cnn(-c3ccccc3)c2)cc1 | inconclusive [cytotoxic, single point] |  |
| O=C(CCCCCCCC(=O)NNC(=O)Nc1ccccc1)NNC(=O)Nc1ccccc1 | inconclusive [cytotoxic, single point] |  |
| CN1CCc2c(sc(NC(=O)c3cc(Cl)sc3Cl)c2C(N)=O)C1 | inconclusive [cytotoxic, single point] |  |
| COc1ccc(C[C@H]2CN3C(=NC[C@H]3C)N2CCNC(=O)c2ccc(C)c(Br)c2)cc1 | inconclusive [cytotoxic, single point] |  |
| Cc1nn(CC#N)c(=O)n1-c1cccc(F)c1 |  | inactive: 1.3% |

| SMILES | Potency | activity, negative = toxicity |
| --- | --- | --- |
| CCCC(c1nnnn1Cc1ccco1)N1CCN(c2cc(Cl)ccc2C)CC1 (stereo not drawn) |  | inconclusive: -4.07% [cytotoxic] |
| CCOC(=O)c1[nH]c(C)c(C(=O)OCc2c(C)noc2C)c1C | inconclusive [cytotoxic, single point] |  |
| O=C1c2cccc3c(O)ccc(c23)C(=O)N1Cc1ccccc1 | inconclusive [cytotoxic, single point] |  |
| O=C(COc1ccccc1)NC(=S)Nc1cccc2c(O)cccc12 | inconclusive [cytotoxic, single point] |  |
| O=C(COc1ccc(C(=O)c2ccccc2)cc1)Nc1ncccc1O | inconclusive [cytotoxic, single point] |  |
| O=C(CC(=O)c1ccccc1O)c1cccc(F)c1 | inconclusive [cytotoxic, single point] |  |
| COc1cccc(/C=C/C(=O)c2ccc(NC3=NCCCS3)cc2)c1 | inconclusive [cytotoxic, partial curve] |  |
| Cc1ccnc(N2C(=O)c3cccc4c([N+](=O)[O-])ccc(c34)C2=O)c1 | active: 2.82 µM |  |
| Cn1cccc1/C=C1\SC(=Nc2ccccc2)NC1=O | active: 5.17 µM |  |
| Cc1ccc(C(=O)NC(=S)Nc2ccc(CN3CCCCC3)cc2)c(C)c1 | inconclusive [cytotoxic, single point] |  |
| CC(C)C(=O)NC(=S)Nc1ccc(S(=O)(=O)N(C)Cc2ccccc2)cc1 | active: 20.6 µM |  |
| Brc1cc2ccccc2[n+](Cc2ccccc2)c1 | inconclusive [cytotoxic, single point] |  |
| Cc1ccc(-c2noc(CCC(=O)NCCN3CCN(Cc4ccccc4)CC3)n2)cc1 |  | inactive: -8.88% |
| COc1ccc(/C=C2/CCCc3ccccc3C2=O)cc1 | inconclusive [cytotoxic, full curve] |  |
| O=C(Nc1ccc(F)cc1)c1nn(-c2ccccc2)c(=O)cc1Cl | active: 20.6 µM |  |
| CN1CCC(OC(=O)c2cc3cc(Br)ccc3oc2=O)CC1 |  | inactive: -5.69% |
| O=C(Nc1ccc(S(=O)(=O)Nc2ccc(Cl)cc2)cc1)C1CCCO1 (stereo not drawn) | inconclusive [cytotoxic, single point] |  |
| CCc1nc(Nc2ccncc2)c2oc3ccccc3c2n1 | active: 23.1 µM |  |
| C=CCNc1nc(C(F)(F)F)nc2c1nnn2Cc1ccccc1Cl |  | inactive: -6.23% |
| CC1CCN(C(=O)CSc2ccc(-c3ccc(F)cc3)nn2)CC1 |  | inactive: -1.03% |
| Cc1ccc(C(=O)NNC(=O)c2ccccc2-n2cccc2)cc1 |  | inactive: 6.38% |
| Cc1ccc(C(=O)c2cc([N+](=O)[O-])ccc2N2CCCCC2)c(C)c1 | inconclusive [cytotoxic, full curve] |  |
| CC(C)OCCCNC(=O)CN1C(=O)CSc2ccc(S(=O)(=O)N3CCCCC3)cc21 |  | inactive: -2.43% |
| CC(C)c1ccc2c(c1)C1(NN=C(c3ccccc3)S1)C(=O)N2 (stereo not drawn) | inconclusive [cytotoxic, single point] |  |
